# The supplement of paper PMC8728848
# The other results are listed elsewhere or left out.
# How the values were obtained:
# Assay in all cases: glycan array binding signal (z-score within array); higher = stronger binding
# Conditions in all cases: glycan notation: IUPAC condensed, linker removed
# Fuc(a1-2)Gal = biological target: Fuc(a1-2)Gal
# How it was run: (§1)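 Glycan array binding is given as a within-array Z-score, which can be read as non-binding when negative. The arrays, 3228 of them, came from the Consortium for Functional Glycomics database and were retained only where the protein sequence was available. Z-scores were averaged across arrays of the same protein sequence at different concentrations or buffers and across linkers.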
# Fuc(a1-2)Gal(b1-3)GalNAc = biological target: Fuc(a1-2)Gal(b1-3)GalNAc
# How it was run: as §1
# [1] = biological target: Fuc(a1-2)Gal(b1-3)GalNAc(b1-3)Gal
# How it was run: as §1
# [2] = biological target: Fuc(a1-2)Gal(b1-3)GalNAc(b1-3)Gal(a1-4)Gal(b1-4)Glc
# How it was run: as §1
# [3] = biological target: Fuc(a1-2)Gal(b1-3)GalNAc(b1-4)[Neu5Ac(a2-3)]Gal(b1-4)Glc
# How it was run: as §1
# Fuc(a1-2)Gal(b1-3)GlcNAc = biological target: Fuc(a1-2)Gal(b1-3)GlcNAc
# How it was run: as §1
# [4] = biological target: Fuc(a1-2)Gal(b1-3)GlcNAc(b1-3)Gal(b1-4)Glc
# How it was run: as §1
# [5] = biological target: Fuc(a1-2)Gal(b1-3)[Fuc(a1-4)]GlcNAc
# How it was run: as §1
# Fuc(a1-2)Gal(b1-4)Glc = biological target: Fuc(a1-2)Gal(b1-4)Glc
# How it was run: as §1
# Fuc(a1-2)Gal(b1-4)GlcNAc = biological target: Fuc(a1-2)Gal(b1-4)GlcNAc
# How it was run: as §1
# [6] = biological target: Fuc(a1-2)Gal(b1-4)GlcNAc(b1-3)Gal(b1-4)GlcNAc
# How it was run: as §1
# [7] = biological target: Fuc(a1-2)Gal(b1-4)GlcNAc(b1-3)Gal(b1-4)GlcNAc(b1-3)Gal(b1-4)GlcNAc
# How it was run: as §1
# [8] = biological target: Fuc(a1-2)Gal(b1-4)[Fuc(a1-3)]GlcNAc
# How it was run: as §1
# [9] = biological target: Fuc(a1-2)Gal(b1-4)[Fuc(a1-3)]GlcNAc(b1-3)Gal(b1-4)[Fuc(a1-3)]GlcNAc
# How it was run: as §1
# [10] = biological target: Fuc(a1-2)Gal(b1-4)[Fuc(a1-3)]GlcNAc(b1-3)Gal(b1-4)[Fuc(a1-3)]GlcNAc(b1-3)Gal(b1-4)[Fuc(a1-3)]GlcNAc
# How it was run: as §1
# Fuc(a1-2)GlcNAc = biological target: Fuc(a1-2)GlcNAc
# How it was run: as §1
# Fuc(a1-2)[Gal(a1-3)]Gal = biological target: Fuc(a1-2)[Gal(a1-3)]Gal
# How it was run: as §1
# [11] = biological target: Fuc(a1-2)[Gal(a1-3)]Gal(b1-3)GlcNAc
# How it was run: as §1
# [12] = biological target: Fuc(a1-2)[Gal(a1-3)]Gal(b1-4)Glc
# How it was run: as §1
# [13] = biological target: Fuc(a1-2)[Gal(a1-3)]Gal(b1-4)GlcNAc
# How it was run: as §1
# [14] = biological target: Fuc(a1-2)[Gal(a1-3)]Gal(b1-4)[Fuc(a1-3)]GlcNAc
# How it was run: as §1
# [15] = biological target: Fuc(a1-2)[Gal(a1-4)]Gal(b1-4)GlcNAc
# How it was run: as §1
# [16] = biological target: Fuc(a1-2)[GalNAc(a1-3)]Gal
# How it was run: as §1
# [17] = biological target: Fuc(a1-2)[GalNAc(a1-3)]Gal(b1-3)GlcNAc
# How it was run: as §1
# [18] = biological target: Fuc(a1-2)[GalNAc(a1-3)]Gal(b1-4)Glc
# How it was run: as §1
# [19] = biological target: Fuc(a1-2)[GalNAc(a1-3)]Gal(b1-4)GlcNAc
# How it was run: as §1
# [20] = biological target: Fuc(a1-2)[GalNAc(a1-3)]Gal(b1-4)[Fuc(a1-3)]GlcNAc
# How it was run: as §1
# [21] = biological target: Fuc(a1-2)[GalNAc(a1-4)]Gal(b1-4)GlcNAc
# How it was run: as §1
# [22] = biological target: Fuc(a1-2)[GalNAc(b1-3)]Gal
# How it was run: as §1
# Fuc(a1-3)GlcNAc = biological target: Fuc(a1-3)GlcNAc
# How it was run: as §1
# [23] = biological target: Fuc(a1-3)[Gal(b1-4)]GlcNAc
# How it was run: as §1
# [24] = biological target: Fuc(a1-3)[Gal(b1-4)]GlcNAc(b1-4)Gal(b1-4)[Fuc(a1-3)]GlcNAc
# How it was run: as §1
# [25] = biological target: Fuc(a1-3)[Gal(b1-4)]GlcNAc(b1-4)Gal(b1-4)[Fuc(a1-3)]GlcNAc(b1-4)Gal(b1-4)[Fuc(a1-3)]GlcNAc
# How it was run: as §1
# [26] = biological target: Fuc(a1-3)[Gal3S(b1-4)]GlcNAc
# How it was run: as §1
# [27] = biological target: Fuc(a1-3)[GalNAc(b1-4)]GlcNAc
# How it was run: as §1
# Fuc(a1-4)GlcNAc = biological target: Fuc(a1-4)GlcNAc
# How it was run: as §1
# Fuc(b1-3)GlcNAc = biological target: Fuc(b1-3)GlcNAc
# How it was run: as §1
# Gal(a1-2)Gal = biological target: Gal(a1-2)Gal
# How it was run: as §1
# Gal(a1-3)Gal = biological target: Gal(a1-3)Gal
# How it was run: as §1
# Gal(a1-3)Gal(b1-3)GlcNAc = biological target: Gal(a1-3)Gal(b1-3)GlcNAc
# How it was run: as §1
# Gal(a1-3)Gal(b1-4)Glc = biological target: Gal(a1-3)Gal(b1-4)Glc
# How it was run: as §1
# Gal(a1-3)Gal(b1-4)GlcNAc = biological target: Gal(a1-3)Gal(b1-4)GlcNAc
# How it was run: as §1
# [28] = biological target: Gal(a1-3)Gal(b1-4)[Fuc(a1-3)]GlcNAc
# How it was run: as §1
# Gal(a1-3)GalNAc = biological target: Gal(a1-3)GalNAc
# How it was run: as §1
# [29] = biological target: Gal(a1-3)[Gal(a1-4)]Gal(b1-4)GlcNAc
# How it was run: as §1
# Gal(a1-4)Gal(b1-4)Glc = biological target: Gal(a1-4)Gal(b1-4)Glc
# How it was run: as §1
# Gal(a1-4)Gal(b1-4)GlcNAc = biological target: Gal(a1-4)Gal(b1-4)GlcNAc
# How it was run: as §1
# Gal(a1-4)GlcNAc = biological target: Gal(a1-4)GlcNAc
# How it was run: as §1
# Gal(a1-6)Glc = biological target: Gal(a1-6)Glc
# How it was run: as §1
# Gal(b1-2)Gal = biological target: Gal(b1-2)Gal
# How it was run: as §1
# Gal(b1-3)Gal = biological target: Gal(b1-3)Gal
# How it was run: as §1
# Gal(b1-3)GalNAc = biological target: Gal(b1-3)GalNAc
# How it was run: as §1
# [30] = biological target: Gal(b1-3)GalNAc(b1-3)Gal(a1-4)Gal(b1-4)Glc
# How it was run: as §1
# [31] = biological target: Gal(b1-3)GalNAc(b1-4)Gal(b1-4)Glc
# How it was run: as §1
# [32] = biological target: Gal(b1-3)GalNAc(b1-4)[Neu5Ac(a2-3)]Gal(b1-4)Glc
# How it was run: as §1
# Gal(b1-3)GlcNAc = biological target: Gal(b1-3)GlcNAc
# How it was run: as §1
# [33] = biological target: Gal(b1-3)GlcNAc(b1-3)Gal(b1-4)Glc
# How it was run: as §1
# [34] = biological target: Gal(b1-3)GlcNAc(b1-3)Gal(b1-4)GlcNAc
# How it was run: as §1
# [35] = biological target: Gal(b1-3)[Fuc(a1-4)]GlcNAc
# How it was run: as §1
# [36] = biological target: Gal(b1-3)[Fuc(a1-4)]GlcNAc(b1-3)Gal(b1-4)GlcNAc
# How it was run: as §1
binder,measurement,setting,value
MAL (Maackia amurensis) (protein) SDELSFTINNFMPNQGDLLFQGVATVSPTGVLQLTSEENGQPLEYSVGRVLYTAPVRIWDSTTGAVASFSTSFTFVVKAARGASDGLAFFLAPPDSQIPSGSVSKYLGLFNNSNSDSSNQIVAVEFDTYFGHSYDPWDPNYRHIGIDVNGIESIKTVQWDWINGGVAFATITYLAPNKTLIASLVYPSNQTSFIVAASVDLKEILPEWVRVGFSAATGAPKAVETHDVRSWSFTSTLEANSPADVDN,glycan array binding signal (z-score),Fuc(a1-2)Gal,-0.422
same,glycan array binding signal (z-score),Fuc(a1-2)Gal(b1-3)GalNAc,-0.341
same,glycan array binding signal (z-score),[1],-0.382
same,glycan array binding signal (z-score),[2],-0.435
same,glycan array binding signal (z-score),[3],-0.271
same,glycan array binding signal (z-score),Fuc(a1-2)Gal(b1-3)GlcNAc,-0.366
same,glycan array binding signal (z-score),[4],-0.402
same,glycan array binding signal (z-score),[5],-0.38
same,glycan array binding signal (z-score),Fuc(a1-2)Gal(b1-4)Glc,-0.4
same,glycan array binding signal (z-score),Fuc(a1-2)Gal(b1-4)GlcNAc,-0.389
same,glycan array binding signal (z-score),[6],-0.171
same,glycan array binding signal (z-score),[7],-0.254
same,glycan array binding signal (z-score),[8],0.544
same,glycan array binding signal (z-score),[9],-0.41
same,glycan array binding signal (z-score),[10],-0.399
same,glycan array binding signal (z-score),Fuc(a1-2)GlcNAc,-0.4
same,glycan array binding signal (z-score),Fuc(a1-2)[Gal(a1-3)]Gal,-0.422
same,glycan array binding signal (z-score),[11],-0.399
same,glycan array binding signal (z-score),[12],-0.323
same,glycan array binding signal (z-score),[13],-0.419
same,glycan array binding signal (z-score),[14],-0.348
same,glycan array binding signal (z-score),[15],-0.425
same,glycan array binding signal (z-score),[16],-0.405
same,glycan array binding signal (z-score),[17],-0.376
same,glycan array binding signal (z-score),[18],-0.433
same,glycan array binding signal (z-score),[19],-0.228
same,glycan array binding signal (z-score),[20],-0.265
same,glycan array binding signal (z-score),[21],-0.429
same,glycan array binding signal (z-score),[22],-0.422
same,glycan array binding signal (z-score),Fuc(a1-3)GlcNAc,-0.417
same,glycan array binding signal (z-score),[23],-0.231
same,glycan array binding signal (z-score),[24],-0.413
same,glycan array binding signal (z-score),[25],-0.419
same,glycan array binding signal (z-score),[26],-0.38
same,glycan array binding signal (z-score),[27],0.242
same,glycan array binding signal (z-score),Fuc(a1-4)GlcNAc,-0.26
same,glycan array binding signal (z-score),Fuc(b1-3)GlcNAc,-0.348
same,glycan array binding signal (z-score),Gal(a1-2)Gal,-0.396
same,glycan array binding signal (z-score),Gal(a1-3)Gal,-0.38
same,glycan array binding signal (z-score),Gal(a1-3)Gal(b1-3)GlcNAc,-0.329
same,glycan array binding signal (z-score),Gal(a1-3)Gal(b1-4)Glc,-0.239
same,glycan array binding signal (z-score),Gal(a1-3)Gal(b1-4)GlcNAc,-0.35
same,glycan array binding signal (z-score),[28],-0.384
same,glycan array binding signal (z-score),Gal(a1-3)GalNAc,-0.323
same,glycan array binding signal (z-score),[29],-0.364
same,glycan array binding signal (z-score),Gal(a1-4)Gal(b1-4)Glc,-0.426
same,glycan array binding signal (z-score),Gal(a1-4)Gal(b1-4)GlcNAc,-0.408
same,glycan array binding signal (z-score),Gal(a1-4)GlcNAc,-0.351
same,glycan array binding signal (z-score),Gal(a1-6)Glc,-0.391
same,glycan array binding signal (z-score),Gal(b1-2)Gal,-0.398
same,glycan array binding signal (z-score),Gal(b1-3)Gal,-0.439
same,glycan array binding signal (z-score),Gal(b1-3)GalNAc,-0.367
same,glycan array binding signal (z-score),[30],-0.287
same,glycan array binding signal (z-score),[31],-0.423
same,glycan array binding signal (z-score),[32],-0.409
same,glycan array binding signal (z-score),Gal(b1-3)GlcNAc,-0.345
same,glycan array binding signal (z-score),[33],1.15
same,glycan array binding signal (z-score),[34],-0.328
same,glycan array binding signal (z-score),[35],-0.289
same,glycan array binding signal (z-score),[36],-0.428
